Reference: PubChem BioAssay AID1346428 (National Center for Advancing Translational Sciences (NCATS), 2018)
Screen size: about 48,000 compounds; about 1,200 (2.5%) were called active. About 2% were inconclusive and are not listed.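 How the source made its calls: active means activation of at least 60% and not above a set upper limit (about 1 call in 100 departs from these limits); inconclusive means activation of 40% to 60%, or above that upper limit; inactive means activation under 40%.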 This is one part of the list.

What follows are compounds tested against Probable G-protein coupled receptor 32 (Homo sapiens) (UniProt O75388) (assay: qHTS for Agonists of Human Resolvin D1 Receptor DRV1). Conditions: CHO-K1 GPR32 beta-arrestin PathHunter luminescence, 90 min; at 76.9 µM; active compounds read high; zero percent set by DMSO-only wells.
Procedure, shortened: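 Cells are plated overnight, treated with compounds in DMSO for 90 minutes at 37 °C, and developed with PathHunter detection reagent for 1 hour before luminescence is read; signal reflects beta-arrestin binding to GPR32 in engineered CHO-K1 cells.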
Further: 0% is about no effect.

Sequence of UniProt O75388 (O75388 whole entry, looked up): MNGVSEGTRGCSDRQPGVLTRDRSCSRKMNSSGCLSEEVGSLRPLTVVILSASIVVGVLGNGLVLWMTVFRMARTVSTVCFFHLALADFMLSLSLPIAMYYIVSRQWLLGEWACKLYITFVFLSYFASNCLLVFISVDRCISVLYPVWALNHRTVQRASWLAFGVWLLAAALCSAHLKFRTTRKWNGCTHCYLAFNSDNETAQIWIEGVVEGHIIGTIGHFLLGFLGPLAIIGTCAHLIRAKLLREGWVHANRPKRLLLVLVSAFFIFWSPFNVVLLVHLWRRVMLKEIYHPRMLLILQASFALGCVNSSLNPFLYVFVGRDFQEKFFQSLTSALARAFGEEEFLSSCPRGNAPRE

Row | SMILES | activation
1 | Cc1ccccc1NC(=O)Cn1c(=O)n(Cc2ccc3c(c2)OCO3)c(=O)c2ccccc21 | inactive: -18.6%
2 | Cc1ccc(S(=O)(=O)NCCc2cn3ccsc3n2)c(C)c1 | inactive: -14.8%
3 | CCN(CC)CCNC(=O)c1c2c(nc3ccccc13)C(=O)N(C1CCCCC1)C2 | inactive: -1.34%
4 | COc1ccc(CNC(=O)c2ccc3c(c2)N(Cc2c(F)cccc2Cl)C(=O)CS3)cc1 | inactive: -12%
5 | CCOC(=O)CSc1nc2ccc(NC(=O)c3cccc(F)c3)cc2s1 | active: 72.6%
6 | O=C(CCn1cccn1)Nc1ccc(Br)cc1F | inactive: -7.8%
7 | O=C(COCc1cc(-c2ccc(F)cc2)on1)Nc1cc(F)ccc1F | inactive: -5.04%
8 | CCOc1ccc(NS(=O)(=O)c2ccc3[nH]c4c(c3c2)CCCCC4)cc1 | active: 65.6%
9 | O=S(=O)(NCc1nc2cccnc2n1Cc1ccccc1Cl)c1ccc2c(c1)CCCC2 | inactive: -19.6%
10 | Cc1cccc(-c2nc3c4ccccc4nc(NCCc4ccccc4)n3n2)c1 | inactive: -15.2%
11 | Nc1ccn([C@@H]2O[C@H](CO)[C@@H](O)C2(F)F)c(=O)n1 | inactive: -12.4%
12 | COc1cccc(NC(=O)CN(CCc2ccccc2)S(=O)(=O)c2ccc(Cl)cc2)c1 | inactive: -5.94%
13 | Cc1nc2ccccc2n1CCc1nc2c3ccccc3nc(SCc3ccc(C#N)cc3)n2n1 | inactive: -1.48%
14 | O=c1c(NCc2cccs2)nccn1-c1ccc(F)cc1 | inactive: 2.59%
15 | CCN(CC)CCCNC(=O)Cc1csc2nc(-c3ccc(Cl)cc3)cn12 | inactive: -6.14%
16 | CCOc1ccccc1NS(=O)(=O)c1ccc2c(c1)oc(=O)n2C | inactive: -20.3%
17 | Cc1cccc(CCNC(=O)c2cc3c(=O)n(C)c4ccccc4c3n2C)c1 | inactive: -2.73%
18 | O=C(CN1C(=O)CCn2nc(-c3ccccc3)cc21)NCc1ccc(Cl)cc1 | inactive: -16.4%
19 | Cc1cc2c(n1-c1ccc(C(=O)NCc3ccccc3Cl)cc1)CCCC2 | inactive: -14.3%
20 | COc1ccccc1N1CCN(C(=O)c2c(C)oc3ncn(C)c(=O)c23)CC1 | inactive: 1.37%
21 | O=C(CCSCc1ccccc1Cl)NCc1ccc(F)cc1Cl | inactive: -24.6%

Row | SMILES | activation
22 | CCc1cc2c(cc3c(=O)n(CCCC(=O)NCc4cccc(Cl)c4)ncn32)s1 | inactive: 1.15%
23 | Cc1cccc(N2CCN(C(=O)c3noc4c3COc3ccc(C)cc3-4)CC2C)c1 (centres undefined) | inactive: 39.9%
24 | COc1ccc(NC(=O)NC2COc3ccccc3C2)cc1Cl (centres undefined) | inactive: -6.66%
25 | Cc1ccc(CN2C(=O)c3ccccc3CC2(C)C(=O)NC2CCCCC2)cc1 (centres undefined) | inactive: -8.48%
26 | CC(C)c1cnc2c(c1SCC(=O)NCc1ccccc1Cl)c(=O)n(C)c(=O)n2C | inactive: -19.9%
27 | O=C(c1ccc2c(c1)N(Cc1cccc(F)c1)C(=O)c1ccccc1S2)N1CCCC1 | inactive: -12.5%
28 | COc1ccc(C(CC(=O)Nc2ccc(C(C)=O)cc2)N2Cc3ccccc3C2=O)cc1 (centres undefined) | inactive: -20.3%
29 | Cc1cccc2c1-c1sc(C(=O)N(C)c3cccc(Cl)c3)cc1CO2 | inactive: -39.6%
30 | CSc1ccc(CCNC(=O)CCc2c(C)nc3ncnn3c2C)cc1 | inactive: 1.71%
31 | CCOc1ccccc1C(=O)NC1(C(F)(F)F)C(=O)Nc2c1c(=O)[nH]c(=O)n2-c1ccc(F)cc1 (centres undefined) | inactive: -5.08%
32 | Cn1nnnc1SCCNCc1cc(Br)ccc1OCc1ccccc1Cl | active: 75.1%
33 | CN1C(=O)CC(c2ccccc2)C1=O (centres undefined) | inactive: -16.8%
34 | COc1ccccc1N1CCN(CCN(C(=O)C2CCCCC2)c2ccccn2)CC1 | inactive: -16.9%
35 | COC(=O)c1c(-c2cccs2)csc1NC(=O)COc1ccc(C)cc1 | inactive: -4.74%
36 | COc1cc(NC(=O)CSc2ccc(-c3ccccn3)nn2)cc(OC)c1 | inactive: -13.1%
37 | O=C(Cc1ccc(-c2ccccc2)cc1)NCCS(=O)(=O)N1CCN(c2ccccc2)CC1 | inactive: -11.7%
38 | O=C(CSc1nc(-c2ccc(F)cc2)[nH]c1-c1ccc(F)cc1)Nc1ccc2c(c1)OCO2 | inactive: 9.38%
39 | COc1ccc(-c2cc(C(F)(F)F)nc(SCC(=O)NCC(C)C)n2)cc1OC | inactive: -18.3%
40 | Cc1ccc(CNC(=O)c2ccc(CS(=O)Cc3cccc(Cl)c3)o2)cc1 (centres undefined) | inactive: -10.6%
41 | Cc1ccn2c(=O)cc(COc3cccc(NC(=O)Nc4cccc(Cl)c4C)c3)nc2c1 | inactive: -0.532%
42 | COc1ccccc1NC(=O)C1=C(C)Nc2nc3ccccc3n2C1c1cccc(OC)c1OC (centres undefined) | inactive: -4.31%

Row | SMILES | activation
43 | COc1ccc(NC(C)=O)cc1NC(=O)CN1CCN(c2ccc(F)cc2)CC1 | inactive: -7.26%
44 | O=S(=O)(c1cccc2ccccc12)N1CCN(c2ccc(Cl)c(Cl)c2)CC1 | inactive: 0.432%
45 | CCOc1cc(C(=O)NCC(c2ccc(N(C)C)cc2)N2CCOCC2)cc(OCC)c1OCC (centres undefined) | inactive: 2.17%
46 | O=C(Cn1cc(S(=O)(=O)c2ccccc2)c(=O)c2cc(Cl)ccc21)Nc1ccc2c(c1)OCO2 | inactive: -7.11%
47 | Cc1cc(Nc2cccc(C(F)(F)F)c2)nc2ccc(NC(=O)c3cccc(Cl)c3)cc12 | inactive: -10.1%
48 | O=C(NCCCN1CCOCC1)c1ccc2c(c1)N(Cc1cccc(Cl)c1)C(=O)c1ccccc1S2 | inactive: -13.1%
49 | CCOc1ccc(CNCc2c(C(=O)O)c(C)n(Cc3c(F)cccc3Cl)c2C)cc1OC | inactive: 8.41%
50 | CC1CCCN(S(=O)(=O)c2ccc3c(c2)c(=O)nc2ccccn23)C1 (centres undefined) | inactive: -17.1%
51 | CCCCN(CCCNC(=O)c1cc(Nc2ccc(OC)c(OC)c2)nc2ccccc12)c1ccccc1 | inactive: 10%
52 | Cc1ccc(-c2cn3c(n2)sc2cc(C(=O)NCCCc4ccccc4)ccc23)c(C)c1 | inactive: -30.9%
53 | CC(=O)O[C@@]12CO[C@@H]1C[C@H](O)[C@@]1(C)C(=O)[C@H](O)C3=C(C)[C@@H](OC(=O)[C@H](O)[C@@H](NC(=O)OC(C)(C)C)c4ccccc4)C[C@@](O)([C@@H](OC(=O)c4ccccc4)[C@H]21)C3(C)C | inactive: 19.9%
54 | CC(C)c1ccc(S(=O)(=O)N2CCC(N3CCN(Cc4ccccc4)C(=O)C3=O)CC2)cc1 | inactive: 5.63%
55 | CCCCN(C)CCNC(=O)CN1C(=O)CSc2ccc(S(=O)(=O)N3CCOCC3)cc21 | inactive: -4.98%
56 | COc1ccc(C2=C(Nc3ccc(C)cc3C)c3ccccc3C2=O)cc1 | inactive: -20.4%
57 | CCc1nn2c(=O)c(S(=O)(=O)Nc3ccc(Cl)cc3)c(C)nc2s1 | inactive: -8.48%
58 | Cc1ccccc1Nc1c(-c2cccnc2)nc2ccc(Cl)cn12 | inactive: -25.6%
59 | CC(CCc1ccccc1)NC(=O)Cn1c(=O)nc(-c2ccccc2)c2ccccc21 (centres undefined) | inactive: 3.05%
60 | CCOC(=O)c1cnc2c(C)c(Cl)ccc2c1Nc1ccc(N2CCOCC2)cc1 | inactive: -28%
61 | Cc1ccc2oc(=O)n(CCCOc3ccccc3Cl)c2c1 | inactive: -30.9%
62 | Cc1cc(C)c(S(=O)(=O)NCC(c2ccc(N(C)C)cc2)N2CCOCC2)c(C)c1 (centres undefined) | inactive: -32.5%
63 | COc1ccccc1-c1noc(-c2ccc(NCC3CCCO3)c([N+](=O)[O-])c2)n1 (centres undefined) | inactive: -13.2%

Row | SMILES | activation
64 | CCc1cccc(NC(=O)CN(C)S(=O)(=O)c2ccc3c(c2)CCCN3C(C)=O)c1 | inactive: 24.9%
65 | CCc1ccc(NC(=O)CN2C(=O)C3(SCC(=O)N3c3ccc(F)c(F)c3)c3ccccc32)cc1 (centres undefined) | inactive: 5.99%
66 | Cc1cccc(C2CC(=O)Nc3cc4c(cc32)OCO4)c1 (centres undefined) | inactive: 4.27%
67 | CCc1nc2nc(C)cc(Nc3cccc(C)c3C)n2n1 | inactive: 10.4%
68 | CC(C)c1ccc(OCC(=O)N(Cc2cccs2)C2CCS(=O)(=O)C2)cc1 (centres undefined) | inactive: -6.84%
69 | COc1ccc(CNC(=O)CCc2c(C)c3cc4c(C)c(C)oc4cc3oc2=O)cc1OC | inactive: -11.2%
70 | Cc1cc(C)n(C(C)CC(=O)Nc2ccc(C)c(N(C)C)c2)n1 (centres undefined) | inactive: -11.8%
71 | C=C(C)CSc1nc(-c2ccccc2)cc(-c2ccc(OC)cc2)c1C#N | inactive: -19.7%
72 | COC(=O)c1ccc(NC(=O)CN2C(=O)CC(c3ccccc3)Sc3ccccc32)cc1 (centres undefined) | inactive: -5.52%
73 | O=C(NC1CCCC1)c1ccc2c(=O)n(Cc3ccccc3)c(SCc3cccc(F)c3)nc2c1 | inactive: -5.34%
74 | CCN(CC)c1ccc(NC(=O)CCCN2C(=O)C(c3ccccc3)Oc3cccnc32)c(C)c1 (centres undefined) | inactive: 37.8%
75 | CCOc1cc(Cl)c(S(=O)(=O)n2ccnc2)cc1Cl | inactive: 14.1%
76 | Cc1nnc(N2CCC(C(=O)NCCC(C)C)CC2)c2nn(-c3ccc(Cl)cc3)c(C)c12 | inactive: -7.66%
77 | CCC(C(=O)N1CCN(c2ccccc2)CC1)n1c(C)c2cnn(-c3ccccc3)c(=O)c2c1C (centres undefined) | inactive: 7.48%
78 | Cc1ccc(N2CC(C(=O)Nc3ccc(N(C)C)cc3)CC2=O)cc1Cl (centres undefined) | inactive: -4.19%
79 | CSc1ccc(-c2nnc(NC(=O)c3ccc4c(c3)OCCO4)o2)cc1 | inactive: -16.1%
80 | Fc1ccccc1N1CCN(c2nc3ccccc3c3nc(-c4ccccc4)nn23)CC1 | inactive: -5.51%
81 | CC(=O)Nc1cccc(-n2cc3c(c2-c2ccccc2Cl)c(=O)n(C)c(=O)n3C)c1 | inactive: -14.9%
82 | O=C(CCn1ccc2cc(S(=O)(=O)N3CCCC3)ccc21)NCc1ccccc1Br | inactive: -14.2%
83 | CC(C)Oc1ccc(C(=O)Nc2c(C(=O)Nc3cccc(F)c3)oc3ccccc23)cc1 | inactive: -4.7%
84 | O=C(CN1C(=O)c2cccnc2Oc2ccc(Cl)cc21)Nc1cccc(C(F)(F)F)c1 | inactive: -18.2%
